Among all 290,000 compounds or so, about 2,100 (0.72%) were called active. This list was built around the results that the source calls inconclusive (neither active nor inactive); the mix of calls is not that of the screen. Calls come from the whole dose curve; as a rule, active = well fitted inhibition curve with a large enough effect; inconclusive = small, poorly fitted or top-dose-only effect, or effect the other way; inactive = flat fitted curve, though single readings scatter. A potency beside an inconclusive call is a rough fit, not a confirmed value.
Each compound was assayed against Fructose-bisphosphate aldolase (Giardia intestinalis (strain ATCC 50803 / WB clone C6)) (UniProt A8B2U2) (assay: qHTS Assay for Inhibitors of Fructose-1,6-bisphosphate Aldolase from Giardia Lamblia). Conditions: purified Giardia FBPA; activity, negative = inhibition: at 59.6 µM (top of the series) unless noted.
Sequence of UniProt A8B2U2 (A8B2U2 whole entry, looked up): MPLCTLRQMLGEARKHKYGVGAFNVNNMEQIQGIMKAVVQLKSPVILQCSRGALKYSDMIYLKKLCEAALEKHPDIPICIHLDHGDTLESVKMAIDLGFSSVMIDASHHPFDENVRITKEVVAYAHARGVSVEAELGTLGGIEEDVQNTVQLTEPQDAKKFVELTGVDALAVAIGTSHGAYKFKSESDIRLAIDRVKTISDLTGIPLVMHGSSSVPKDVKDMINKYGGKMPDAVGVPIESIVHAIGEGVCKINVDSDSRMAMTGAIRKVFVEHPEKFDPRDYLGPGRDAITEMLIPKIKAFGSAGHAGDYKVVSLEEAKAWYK
Procedure, shortened: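 Giardia FBPA (40 nM reagent) was preincubated 10 min at RT with compound (up to 57.5 uM final), then substrate plus GAPDH/TPI/NAD/arsenate coupling system with diaphorase/resazurin was added; resorufin fluorescence (525/598 nm) was read after 20 min.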
For `C=CCn1c(C2CCCCC2)n[nH]c1=S`, the Potency was inconclusive: 7.06 µM [inhibitor, full curve].
`C(=C\c1ccccc1)/CSc1nnc(-c2ccccn2)n1Cc1ccco1` was tested, and the Potency was “inactive”.
In the case of `CCN(c1ccccc1)S(=O)(=O)c1ccc(OC)c(NC(=O)CNC)c1`, the Potency is reported as inconclusive: 15.8 µM [inhibitor, partial curve].
For `COc1ccc(N=C2C(=O)Nc3ccccc32)cc1`, the Potency was inconclusive: 11.2 µM [inhibitor, partial curve].
In the case of `Cc1cccc(NC(=O)[C@@H](NC(=O)[C@@H]2Cc3ccccc3CN2)C(C)C)c1`, the Potency is reported as “inactive”.
`COC(=O)c1nn(-c2ccc(OC)cc2)c(=O)cc1O` was tested, and the Potency was inconclusive: 44.6 µM [inhibitor, single point].
For `COc1ccc(C(=O)CCN2CCN(c3ccc(OC)cc3)CC2)cc1`, the Potency was “inactive”.
In the case of `O=[N+]([O-])c1cc(S(=O)(=O)Nc2ccccc2)ccc1N1CCN(c2ccc(O)cc2)CC1`, the Potency is reported as inconclusive: 17.7 µM [inhibitor, partial curve].
With `COc1ccc(Cn2cc3c(-c4ccc(F)cc4)nnc-3c3cc(OC)c(OC)cc32)cc1` the Potency was “inactive”.
With `Cc1ccc(OCc2nc(-c3ccccn3)n[nH]2)cc1` the Potency was inconclusive: 15.8 µM [inhibitor, partial curve].
In the case of `O=C1C=C2C=C[C@H]3C[C@]2(O1)[C@@H]1CCCCN13`, the Potency is reported as “inactive”.
With `COc1ccc(C(=O)Nc2ccc(-c3n[nH]c(=S)o3)cc2)cc1OC` the Potency was inconclusive: 20 µM [inhibitor, single point].
In the case of `Nc1cc2nc[nH]c2cc1N`, the Potency is reported as inconclusive: 0.446 µM [inhibitor, full curve].
In the case of `COc1ccc(-c2nnc(-c3ccccc3)o2)cc1OC`, the Potency is reported as “inactive”.
For `CC(=O)Nc1cccc(-c2csc(NCc3ccccc3)n2)c1`, the Potency was active: 19.9 µM.
`O=C(CSc1nc2ncc(Cl)cc2[nH]1)NCC(=O)Nc1ccc(F)c(F)c1F` was tested, and the Potency was inconclusive: 17.7 µM [inhibitor, partial curve].
For `CCCn1c(C2CCCN2c2nc(-c3ccc(OC)cc3)cs2)nc2ccccc21` (centres undefined), the Potency was inconclusive: 15.8 µM [inhibitor, partial curve].
In the case of `CN(C)Cc1ccc(F)cc1Sc1ccc(Cl)cc1Cl`, the Potency is reported as inconclusive: 15.8 µM [inhibitor, single point].
With `CCCCC1=CC2=CC(=O)C(C)(OC(=O)CC)C(=O)C2=CN1CCc1c[nH]c2ccccc12` (centres undefined) the Potency was inconclusive: 0.354 µM [inhibitor, full curve] and the activity, negative = inhibition was inactive: -28.1% [at 12.9 µM].
For `CCCSc1cc(N2CCOCC2)nc(-c2ccccc2Cl)n1`, the Potency was “inactive”.
For `COC(=O)[C@@]1(OC)C[C@@H]2O[C@@]1(C)n1c3ccccc3c3c4c(c5c6ccccc6n2c5c31)C(=O)N(C)C4`, the activity, negative = inhibition was inactive: 2.86% [at 12.9 µM].
In the case of `Cc1ccc2nc(NC(=O)Cn3cc4c(n3)CCCCC4)sc2c1`, the Potency is reported as inconclusive: 17.7 µM [activator, single point].
For `N#C/C(=C\c1ccc(-c2ccc(F)cc2)o1)C(=O)Nc1nc(-c2cccs2)cs1`, the Potency was inconclusive: 7.06 µM [inhibitor, full curve, poor fit].
In the case of `COP(=S)(OC)SCn1nnc2ccccc2c1=O`, the Potency is reported as inconclusive: 22.3 µM [inhibitor, single point].
For `CCCCC(=O)NNC(=S)NC(=O)c1ccc(C)cc1`, the Potency was “inactive”.
For `Cc1ccc(S(=O)(=O)N2CCSC2c2ccco2)cc1` (centres undefined), the Potency was inconclusive: 17.7 µM [inhibitor, single point].
In the case of `O=C(N/N=C/c1ccccc1O)c1cc(=O)[nH]c2ccccc12`, the Potency is reported as inconclusive: 3.15 µM [inhibitor, full curve, poor fit].
With `Cc1cs/c(=N\N=C2CCCCC2)n1Cc1ccco1` the Potency was “inactive”.
In the case of `O=C(NC(=S)NNC(=O)c1ccccc1F)c1cccnc1`, the Potency is reported as inconclusive: 3.15 µM [inhibitor, full curve].
For `Cc1cc(C)cc(N2C(=O)C3C4C=CC(C4)C3C2=O)c1` (centres undefined), the Potency was “inactive”.
In the case of `C=C1CCc2c([nH]c3ccc(OCC(C)C)cc23)C1=O`, the Potency is reported as “inactive”.
With `O=C1OCC2OC(O)C(O)C(O)C2OC(=O)c2cc(O)c(O)c(O)c2-c2c(O)c(O)c3oc(=O)c4c(c(O)c(O)c5oc(=O)c2c3c54)-c2c1cc(O)c(O)c2O` (centres undefined) the Potency was active: 3.97 µM.
`CCNc1ncc2ncc(=O)n(C)c2n1` was tested, and the Potency was “inactive”.
For `COc1ccc(NC(=O)C2CCCN2c2nn3c(=O)cc(C)nc3s2)cc1` (centres undefined), the Potency was “inactive”.
For `Cc1ccc(OCCn2ccnc2)c([N+](=O)[O-])c1`, the Potency was inconclusive: 28.2 µM [inhibitor, partial curve].
`N#Cc1c(NC(=O)c2ccc([N+](=O)[O-])o2)sc2c1CCC2` was tested, and the Potency was inconclusive: 14.1 µM [inhibitor, partial curve].
For `COc1ccc(Br)cc1CN1CCN(Cc2c[nH]c3ccccc23)CC1`, the Potency was active: 14.1 µM.
With `CCc1nnc(NC(=O)c2sc3nc4c(cc3c2N)CCCCC4)s1` the Potency was “inactive”.
`N#CC1=C(N)C(C#N)(C#N)[C@H](c2ccncc2)[C@H]2CC3(CC=C12)OCCO3` was tested, and the Potency was inconclusive: 17.7 µM [inhibitor, single point].
`Cc1cc(C)n(C(=O)Cc2cn3ccsc3n2)n1` was tested, and the Potency was inconclusive: 5.61 µM [inhibitor, partial curve].
`CN1CCN(Cc2nc3c([nH]2)c(=O)[nH]c(=O)n3C)CC1` was tested, and the Potency was inconclusive: 22.3 µM [inhibitor, partial curve].
With `O=C(CNCc1ccccc1Cl)Nc1ccc(C(=O)N2CCCCC2)cc1` the Potency was inconclusive: 12.6 µM [inhibitor, single point].
`CCN(Cc1ccccc1)c1ccc(/C=N/N=C(N)N)cc1` was tested, and the Potency was “inactive”.
With `CC(=O)c1c(C)oc2ccc(NS(=O)(=O)c3ccc(O)c(C(=O)O)c3)cc12` the Potency was inconclusive: 17.7 µM [activator, single point].
In the case of `O=C1NC(=O)N(c2ccccc2)C(=O)/C1=C\C=C\c1ccccc1`, the Potency is reported as “inactive”.
For `CCc1nnc(NC(=O)CSc2nnc(-c3ccco3)o2)s1`, the Potency was inconclusive: 17.7 µM [inhibitor, single point].
In the case of `COc1cc(OC)cc(C(=O)NCCOc2ccccc2)c1`, the Potency is reported as “inactive”.
`C/C=C/c1ccc(OCC(O)CN2CCCCCCC2)c(OC)c1` (centres undefined) was tested, and the Potency was inconclusive: 19.9 µM [inhibitor, partial curve].
% is set by controls: 0 for no effect and ±100 for the full control effect; potency is the fitted concentration of half-maximal effect; tags give direction and shape of the fitted curve.
Note: nearly all actives have a fitted effect of over 55% in size.
